From PubChem BioAssay AID1508623 (National Center for Advancing Translational Sciences (NCATS), 2021)
Hit rate of the full screen: of about 48,000 compounds, about 450 (0.94%) were called active. Roughly 19% stayed inconclusive and do not appear here. Calls follow the shape of the dose curve; as a rule, active = well fitted inhibition curve with a large enough effect; inconclusive = small, poorly fitted or top-dose-only effect; inactive = no such curve, though single readings can be large or run the other way. This is one part of the list.

assay: Primary qHTS for Identification of Small Molecule Inhibitors of Huntingtin Promoter Activity; conditions: HEK293 HTT promoter firefly luciferase reporter (activity 0% = vehicle and -100% = no light), 24 h; series mostly up to 57.5 µM; activity change, negative = inhibition: at the top concentration; also: nearly all actives have a fitted effect of over 50% in size
Outline: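 HEK293 luciferase promoter-reporter cells (2,500/well) plated 24 h, then compounds added at up to 57.5 uM final for 24 h at 37 °C. Firefly luminescence by Dual-Glo, normalized to vehicle (0%) and zero RLU (-100%).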
Potency is read from the fitted curve at half-maximal effect.

| SMILES | activity change, negative = inhibition | Potency |
| --- | --- | --- |
| O=c1cc(CO)occ1O | inactive: 2.53% |  |
| CC1=C(c2ccc(Cl)cc2)S(=O)(=O)NC1=NCc1ccc(C)cc1 | inactive: -11.9% |  |
| CC12CN3CC(C)(CN(C1)C3c1ccc(OCc3ccccc3)cc1)C2=O (stereo not given) | inactive: -10.8% |  |
| CCOC(=O)c1ccc(NC(=O)c2cc3c(n(-c4ccc(C)cc4)c2=O)CC(C)(C)CC3=O)cc1 | inactive: -11.6% |  |
| Cn1c(C(=O)N2CCC(C(=O)NCCc3ccc(S(N)(=O)=O)cc3)CC2)cc2sccc21 | inactive: -6.05% |  |
| COc1ccc(-c2nc3scc(CCNS(=O)(=O)c4cccc(C(C)=O)c4)n3n2)cc1 | inactive: -15.1% |  |
| Cc1ccc(NC(=O)CSc2nnc(C)c(=O)[nH]2)cc1 | inactive: -3.36% |  |
| CCc1ccc(NC(=O)Cn2c(=O)ccc3cc(S(=O)(=O)N4CCCC4)ccc32)cc1 | inactive: -10.8% |  |
| CCOC(=O)c1cccc(Nc2cc(C)nc(C)n2)c1 | inactive: -5.44% |  |
| Cc1nnc2c3ccccc3nc(N3CCN(c4cccc(Cl)c4)CC3)n12 | inactive: -3.03% |  |
| CCOCCCn1c(=N)c(C(=O)NC2CCCC2)cc2c(=O)n3cccc(C)c3nc21 | inactive: -4.89% |  |
| Cc1noc(Cn2c(=O)c3ccccc3n(CC(=O)Nc3ccccc3C(F)(F)F)c2=O)n1 | inactive: -8.16% |  |
| Oc1ccc(Nc2nc(-c3ccc(Cl)cc3)nc3ccccc23)cc1 | inactive: -29.2% |  |
| COc1ccccc1CNC(=O)CN1C(=O)CCCc2ccccc21 | inactive: 18.1% |  |
| CCc1ccc(NC(=O)c2oc3c(c2C)-c2[nH]ncc2CC3)cc1 | inactive: 79.7% |  |
| CCCCOc1ccc(C2c3c(oc4ccccc4c3=O)C(=O)N2c2nc(C)c(C(=O)OCC)s2)cc1OC (stereo not given) | inactive: -11.1% |  |
| COc1ccc(S(=O)(=O)NCCc2cn3ccsc3n2)cc1 | inactive: -3.61% |  |
| CC(=O)c1ccc(NC(=O)c2ccc(CN3C(=O)CCn4nc(C)cc43)cc2)cc1 | inactive: 18.5% |  |
| O=C(CCC1N=C2c3ccccc3N=C(SCc3cccc(F)c3)N2C1=O)NCc1ccc(F)cc1 (stereo not given) | inactive: -22.5% |  |
| CCc1ccc(NC(=O)Cn2nnc(C(=O)Nc3cc(C)ccc3OC)c2N)cc1 | inactive: -25.9% |  |
| O=C(Nc1ccccc1Br)N1CCN2CCCCC2C1 (stereo not given) | inactive: 12.2% |  |
| NC1CCN(c2cccc(Cl)n2)CC1 | inactive: 13% |  |
| Cc1nn2c(=O)cc(COC(=O)c3ccc(F)cc3)nc2s1 | inactive: 8.83% |  |
| CCc1ccc(NC(=O)CN2C(=O)CCSc3ccc(S(=O)(=O)N4CCCC4)cc32)cc1 | inactive: -29.8% |  |
| COc1ccc(C(=O)c2cn(Cc3cccc(C)c3)c3cc4c(cc3c2=O)OCCO4)cc1OC | inactive: -26.2% |  |

| SMILES | activity change, negative = inhibition | Potency |
| --- | --- | --- |
| CCN(CC)CCNC(=O)Cn1ncc2c3ccccc3n(Cc3ccccc3C)c2c1=O | inactive: -4.86% |  |
| COC(=O)c1ccccc1NC(=O)c1cc(=O)c2ccc(C)c(C)c2o1 | inactive: -7.53% [at 11.5 µM] |  |
| CCOC(=O)C1CCN(c2nc3c(S(=O)(=O)c4ccc(CC)cc4)nnn3c3ccc(Cl)cc23)CC1 | inactive: -12.9% |  |
| CC(=O)c1ccc(NC(=O)C2CCCN(S(=O)(=O)c3ccc(Br)s3)C2)cc1 (stereo not given) | inactive: 17.1% |  |
| CCOc1ccc(NC(=O)c2sc3nc4n(c(=O)c3c2C)CCCC4)cc1 | inactive: 3.46% |  |
| Cc1cc(Cl)ccc1NC(=O)CS(=O)(=O)c1cccc2nsnc12 | inactive: -13.3% |  |
| Cc1ccc(C(=O)NCCSc2c[nH]c3ccccc23)cc1C | inactive: -0.196% |  |
| Cc1ccn2c(Nc3ccc4c(c3)OCO4)c(-c3ccc(C)o3)nc2c1 | inactive: 16.8% |  |
| CCOc1ccc(N(CC)C(=O)c2cc3c(s2)-c2ccc(Cl)cc2SC3)cc1 | inactive: -10.3% |  |
| Cc1cc(C)cc(NC(=O)CSc2oc(-c3cccs3)nc2S(=O)(=O)c2ccc(Br)cc2)c1 | inactive: -5.46% |  |
| COC(=O)c1sc2cccc(F)c2c1S(=O)(=O)NC(C)c1ccccc1 (stereo not given) | inactive: -2.02% |  |
| CC(=O)NC(=O)c1ccccc1O | inactive: -3.15% |  |
| COc1ccc(NC(=O)C2(S(=O)(=O)c3ccc(C)cc3)CC2)c(OC)c1 | inactive: 12% |  |
| COc1ccc(-c2c(C)c3ccc(O)c(CN4CCCCC4C)c3oc2=O)cc1OC (stereo not given) | inactive: -16.1% |  |
| CCOC(=O)C1CCN(C(=O)c2ccc3c(=O)n4nc(Nc5ccccc5)sc4nc3c2)CC1 | inactive: -34.1% |  |
| CCOc1ccc(NC(c2ccc(Cl)cc2)c2nnc(-c3cccc(F)c3)o2)cc1 (stereo not given) | inactive: -14.7% |  |
| O=C(Nc1ccccc1F)C(c1ccccc1)N1Cc2ccccc2C1=O (stereo not given) | inactive: -9.42% |  |
| O=C(CSc1nccn1Cc1ccc(F)cc1)NC1CCCC1 | inactive: -23.8% |  |
| CCCOC(=O)c1ccc(NC(=O)C2CC(=O)N(c3ccc(C)cc3)C2)cc1 (stereo not given) | inactive: -1.98% |  |
| CCCOc1ccccc1C(=O)N1CCCCC1CCN1CCCCC1 (stereo not given) | inactive: -4.15% |  |
| CCC(=O)N1c2ccccc2CC1C(=O)NCCc1ccccc1OC (stereo not given) | inactive: -18.7% |  |
| CN1CC(=O)N2[C@H](c3ccc4c(c3)OCO4)c3[nH]c4ccccc4c3C[C@@H]2C1=O | inactive: -8.63% |  |
| CCc1ccc(-n2nc(C)c3c(C(=O)Nc4ccc(Cl)cc4)cc(C)nc32)cc1 | inactive: -11.7% |  |
| CCCCNC(=O)CSc1nc(-c2ccc(OC)cc2)cc(C(F)(F)F)n1 | inactive: -14.3% |  |
| Cc1ccc(C)c(-c2ccc(=O)n(C(C)C(=O)Nc3ccccc3C(F)(F)F)n2)c1 (stereo not given) | inactive: -26.8% |  |

| SMILES | activity change, negative = inhibition | Potency |
| --- | --- | --- |
| COc1ccc(OC)c(-n2nnc(-c3nc(-c4ccc5c(c4)OCO5)no3)c2C)c1 | inactive: 13.5% |  |
| O=C(NC1CC(=O)N(c2cccc(F)c2)C1)c1ccc(S(=O)(=O)N2CCCCC2)cc1 (stereo not given) | inactive: -8.55% |  |
| Cc1ccc(OCC(=O)Nc2nnc(SCc3cc(=O)n4cc(C)ccc4n3)s2)cc1 | inactive: -2.1% |  |
| Cc1noc(-c2ccc(N(C)Cc3ccccc3)c([N+](=O)[O-])c2)n1 | inactive: -12.7% |  |
| COC(=O)c1ccccc1NC(=O)CCn1c(=O)c2cccn2c2cccnc21 | inactive: -3.21% |  |
| COc1ccc(C(=O)Nc2cc(-c3nc4ncccc4o3)ccc2C)cc1Br | inactive: 3.91% |  |
| COc1ccc(OCc2nc(-c3ccc(OC)c(OC)c3)no2)cc1 | inactive: -19.2% |  |
| CC(=O)Nc1ccc(C)cc1-c1nc2ccccc2n(Cc2cccc(Br)c2)c1=O | inactive: 0.372% |  |
| CC(=O)Nc1c(C)nn(-c2ccccc2)c1N1CCC(C(=O)Nc2ccc(C)cc2Cl)CC1 | inactive: -9.33% |  |
| C1CCC(C(CC2CCCCN2)C2CCCCC2)CC1 (stereo not given) | inactive: -18.3% |  |
| CCCc1nc2nc(C)c(NS(=O)(=O)c3ccc(C)c(C)c3)c(=O)n2[nH]1 | inactive: 7.68% |  |
| CCOC(=O)C1CCCN(C(=O)c2ccc(C)c(NC(=O)c3nsc4ccccc34)c2)C1 (stereo not given) | inactive: -30.8% |  |
| COc1cccc(NC(=O)CSc2nnc3[nH]c(=O)cc(-c4ccccc4)n23)c1 | inactive: 12.1% |  |
| CCc1ccc(NS(=O)(=O)c2cc(Br)cc3c2N(C(C)=O)CC3)cc1 | inactive: -3.03% |  |
| COc1ccc(CCNc2oc(/C=C/c3ccc(OC)c(OC)c3)nc2C#N)cc1 | inactive: -23.1% |  |
| CC(C)NCC(O)COc1ccc(CCOCC2CC2)cc1 (stereo not given) | inactive |  |
| CN(C)c1ccc(C(CNC(=O)c2ccccc2Cl)N2CCc3ccccc32)cc1 (stereo not given) | inactive: 17.1% |  |
| O=C(COc1ccc(Cl)cc1)Nc1ccc(O)c(-c2nc3ccccc3s2)c1 | inactive: 16.3% |  |
| Cc1ccc(Cn2c(C(=O)O)c(CNCCc3cccs3)c3ccc(C)cc32)cc1 | inactive: -12.4% |  |
| O=C(NC1CC(=O)N(c2ccc(F)cc2)C1)c1ccc(S(=O)(=O)N2CCCC2)cc1 (stereo not given) | inactive: -12.5% |  |
| Cc1ccc(NC(=O)Nc2nc3c(s2)CCCCCC3)cc1C | inactive: -19.4% |  |
| COc1ccccc1NC(=O)c1ccc2[nH]c(C)cc(=O)c2c1 | inactive: 2.27% |  |
| O=c1c2sc3ccccc3c2n(Cc2ccccc2F)c(=O)n1-c1ccccc1Cl | inactive: -12.9% |  |
| COc1cccc(CNC(=O)CSc2nc3ccccc3nc2Cc2ccccc2)c1 | inactive: -18.4% |  |
| CCN(CC)S(=O)(=O)c1ccc2nc(NC(=O)c3ccccc3OC)sc2c1 | inactive: -32% |  |

| SMILES | activity change, negative = inhibition | Potency |
| --- | --- | --- |
| Cc1ccc2c(c1)cc(C(=O)NCc1ccc(F)cc1)n2C | inactive: 6.87% |  |
| COc1ccccc1N1CCN(c2ccc(=O)n(CC(=O)O)n2)CC1 | inactive: -12.5% |  |
| COc1cccc(CNc2ncnc3c2nnn3C)c1 | inactive: -17.9% |  |
| CNC(=O)C1CCC(Cn2c(=O)c3sccc3n(CC(=O)N3CCCC3)c2=O)CC1 (stereo not given) | inactive: -1.02% |  |
| COc1cccc(C2CC(=O)Nc3c2c(=O)[nH]c2ncnn32)c1OC (stereo not given) | inactive: -9.35% |  |
| CCN(C(=O)CSc1nc(-c2ccccc2)no1)c1cccc(C)c1 |  | active: 3.16 µM |
| CCc1nc(N)nc(N)c1-c1ccc(Cl)cc1 | inactive |  |
| CCOc1ccc(C2C(C(N)=O)=C(C)Nc3nc(-c4ccc(OC)cc4)nn32)cc1 (stereo not given) | inactive: 1.81% |  |
| O=C(C1CCN(S(=O)(=O)c2ccc(Br)s2)CC1)N1CCN(c2ccc(F)cc2)CC1 | inactive: -2.65% |  |
| COc1ccccc1C(=O)Nc1cccc(OCc2cc(=O)n3c4c(sc3n2)CCCC4)c1 | inactive: 3.05% |  |
| c1ccc2sc(SN3CCOCC3)nc2c1 | inactive: 4.84% |  |
| O=c1c2sc3ccccc3c2n(Cc2ccc(F)cc2)c(=O)n1Cc1ccco1 | inactive: -11.3% |  |
| Cc1cc2ccccc2n1CCNC(=O)c1ccccc1F | inactive: -14.3% |  |
| CC(C)c1ccc(S(=O)(=O)c2nnn3c2nc(NCc2cccs2)c2sccc23)cc1 | inactive: -6.14% |  |
| CC(=O)Nc1ccc(OC(=O)c2ccccc2OC(C)=O)cc1 | inactive: -4.58% |  |
| O=C(NCC(c1ccc2c(c1)OCO2)N1CCN(c2ccccc2)CC1)C(=O)Nc1ccccc1 (stereo not given) | inactive: -1.83% |  |
| O=C(OCc1cc(=O)n2nc(C3CC3)sc2n1)c1ccc(NC(=O)c2ccccc2Cl)cc1 | inactive: -26.4% |  |
| CCc1ccc2oc(C(=O)Nc3cc(Cl)ccc3OC)cc(=O)c2c1 | inactive: -0.153% |  |
| Cc1c(C(=O)Nc2ccccc2)sc2nc(-c3cc4ccccc4oc3=O)[nH]c(=O)c12 | inactive: 4.09% |  |
| Fc1ccc(Nc2nc(-c3cccc(Cl)c3)c3c(n2)-c2ccccc2OC3)cc1 | inactive: -12.3% |  |
| CC(=O)[C@@]1(O)CC[C@H]2[C@@H]3C[C@H](C)C4=CC(=O)C=C[C@]4(C)[C@@]3(F)[C@@H](O)C[C@@]21C | inactive: 7.68% |  |
| O=C(Nc1cccc(C(=O)N2CCN(c3ccccc3)CC2)c1)c1nsc2ccccc12 | inactive: -18.7% |  |
| CCOc1ccc(CNC(=O)C2CCN(S(=O)(=O)c3cn(C)cn3)CC2)cc1OC | inactive: -16.6% |  |
| COc1cccc(CN2C(=O)CN(C3CCCCC3)C(=O)C2c2ccc(OC)c(OC)c2)c1 (stereo not given) | inactive: -1.9% |  |
| COc1ccc2c(c1)c1c(c(=O)n(-c3ccccc3C)c(=O)n1CC(=O)N1CCCC1)n2C | inactive: -13.4% |  |
